Results on 24 compounds are retold here after the antibiotic and cytotoxicity screens of Wong et al. (2023).

The other results are listed elsewhere or left out.

In this assay the test system is S. aureus RN4220. Briefly: growth inhibition call (relative growth <= 0.2). Particulars: 50 µM.
Consider `COc1ccc(CN(C)C[C@@H]2Oc3c(NC(=O)c4ccc(-c5nccs5)cc4)cccc3C(=O)N([C@@H](C)CO)C[C@H]2C)cc1`, for which the growth inhibition call was “inactive”.
In the case of `CO[C@@H]1CN(C)C(=O)c2cc(NS(C)(=O)=O)ccc2OC[C@@H](C)N(S(=O)(=O)CC(F)(F)F)C[C@H]1C`, the growth inhibition call was “inactive”.
Then `C[C@@H]1CN([C@H](C)CO)C(=O)CCCn2cc(nn2)CO[C@H]1CN(C)C(=O)Nc1ccc(N2CCN(C)CC2)cc1`, with “inactive”.
Then `C[C@@H]1CN([C@@H](C)CO)C(=O)Cc2cc(NC(=O)CCCCCC(=O)Nc3ccccc3N)ccc2O[C@@H]1CN(C)C(=O)Nc1ccccc1`, with “inactive”; and `CC(C)C[C@H](NC(=O)[C@H](CCCCN)NC(=O)[C@H](CCCNC(=N)N)NC(=O)[C@H](C)NC(=O)[C@H](CO)NC(=O)[C@H](CCCCN)NC(=O)[C@H](CCCNC(=N)N)NC(=O)[C@H](C)NC(=O)CNC(=O)[C@@H](NC(=O)[C@H](Cc1ccccc1)NC(=O)CNC(=O)CNC(=O)[C@@H](N)Cc1ccccc1)[C@@H](C)O)C(=O)N[C@@H](C)C(=O)N[C@@H](CC(N)=O)C(=O)N[C@@H](CCC(N)=O)C(=O)O`, with “inactive”.
Then `CN1CCN(C(=O)C[C@H]2C[C@@H]3c4cc(NC(=O)c5ccc6c(c5)OCO6)ccc4O[C@@H]3[C@@H](CO)O2)CC1`, with “inactive”; and `CCC[C@@H](O)C#Cc1cnc2c(c1)C(=O)N([C@H](C)CO)C[C@H](C)[C@H](CN(C)C(=O)Nc1ccc3c(c1)OCO3)O2`, with “inactive”; and `C[C@@H]1CN([C@H](C)CO)C(=O)c2cc(NC(=O)Nc3ccccc3)ccc2O[C@@H](C)CCCCO[C@@H]1CN(C)S(=O)(=O)c1ccccc1`, with “inactive”.
As for `CCCNC(=O)Cc1nnc[nH]1`, the growth inhibition call was “inactive”.
For the compound `CC(C)NC(=O)Nc1ccc2c(c1)C(=O)N([C@H](C)CO)C[C@@H](C)[C@H](CN(C)Cc1ccc(C(=O)O)cc1)O2`, the growth inhibition call is “inactive”.
On to `COc1ccc(CN(C)C[C@H]2OCCCC[C@H](C)Oc3ccc(NC(=O)NC4CCCCC4)cc3C(=O)N([C@@H](C)CO)C[C@H]2C)cc1`, for which the growth inhibition call was “inactive”.
Then `C[C@H]1CN([C@@H](C)CO)C(=O)c2cc(NC(=O)Nc3ccc(C(F)(F)F)cc3)ccc2O[C@@H]1CN(C)C(=O)Nc1ccc2c(c1)OCO2`, with “inactive”.
Then `Cc1noc(C)c1NC(=O)N(C)C[C@@H]1Oc2ccc(NS(=O)(=O)c3cn(C)cn3)cc2CC(=O)N([C@H](C)CO)C[C@H]1C`, with “inactive”.
On to `CNC[C@@H]1OCCCC[C@@H](C)Oc2ccc(NS(=O)(=O)c3cn(C)cn3)cc2C(=O)N([C@H](C)CO)C[C@H]1C`, for which the growth inhibition call is “inactive”.
With `C[C@@H]1CN([C@H](C)CO)C(=O)c2cc(NC(=O)C3CC3)ccc2O[C@@H]1CN(C)Cc1ccc(-c2ccccc2)cc1`, the growth inhibition call was “inactive”.
As for `C[C@@H]1CN([C@@H](C)CO)S(=O)(=O)c2ccc(C#Cc3ccncc3)cc2O[C@H]1CN(C)C(=O)Nc1ccc2c(c1)OCO2`, the growth inhibition call is “inactive”.
For the compound `COc1ccc(NC(=O)Nc2ccc3c(c2)C(=O)N([C@H](C)CO)C[C@@H](C)[C@@H](CN(C)Cc2ccc4c(c2)OCO4)OCCCC[C@@H](C)O3)cc1`, the growth inhibition call is “inactive”.
Consider `Cc1noc(C)c1NC(=O)N(C)C[C@@H]1Oc2ccc(NC(=O)NC(C)C)cc2CC(=O)N([C@@H](C)CO)C[C@H]1C`, for which the growth inhibition call was “inactive”.
As to `C[C@H]1CN([C@@H](C)CO)C(=O)c2cc(-c3cccc(C(=O)N(C)C)c3)cnc2O[C@H]1CN(C)S(=O)(=O)c1ccccc1`, the growth inhibition call is “inactive”.
Then `CC[C@@H]1/C=C(\C)C[C@H](C)C[C@H](OC)[C@H]2O[C@@](O)(C(=O)C(=O)N3CCCC[C@H]3C(=O)O[C@H](/C(C)=C/[C@@H]3CC[C@H](Cl)[C@H](OC)C3)[C@H](C)[C@@H](O)CC1=O)[C@H](C)C[C@@H]2OC`, with “inactive”; and `CCCC(=O)Nc1ccc2c(c1)C(=O)N(C)C[C@@H](OC)[C@H](C)CN(C(=O)CN1CCOCC1)[C@H](C)CO2`, with “inactive”.
As to `C[C@@H]1CN([C@@H](C)CO)C(=O)Cc2cc(NS(=O)(=O)c3cccs3)ccc2O[C@H]1CN(C)C(=O)Nc1cccc2ccccc12`, the growth inhibition call was “inactive”.
Regarding `C[C@H](O)C#Cc1cnc2c(c1)C(=O)N([C@H](C)CO)C[C@@H](C)[C@@H](CN(C)C(=O)CN1CCOCC1)O2`, the growth inhibition call was “inactive”.
Then `COCCOC(=O)N1C(=O)[C@@]2(c3cc(C#CC4=CCCCC4)ccc31)[C@H](c1ccccc1OCCO)N1[C@H](c3ccccc3)[C@H](c3ccccc3)OC(=O)[C@H]1[C@@H]2C(=O)NC[C@H](O)c1ccccc1`, with “inactive”.
